# Test results as given in PubChem BioAssay (NCATS).
# “And” between values parts separate entries of the source, which are not always exact repeats. Identical values can stand only once. Inconclusive results, whose numbers are uncertain, are shown with a selection of clear calls. A potency beside an inconclusive call is a rough fit, not a confirmed value. The source made the active and inactive calls. Calls come from the whole dose curve; as a rule, active = well fitted curve in the direction sought with a large enough effect; inconclusive = small, poorly fitted or top-dose-only effect, or another doubt; inactive = no such curve, though single readings can be large; an effect the other way counts as inactive or inconclusive.
# Assays:
# [1] = qHTS of pediatric cancer cell lines to identify multiple opportunities for drug repurposing: Primary screen for DAOY cells (AID 1347090); settings: DAOY medulloblastoma viability, CellTiter-Glo luminescence, 48 h; activity change, negative = cytotoxic: at 46 µM (top of the series); note: nearly all actives have a fitted effect of over 55% in size;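 for activity change, negative = cytotoxic: plate controls were DMSO for no effect and bortezomib for full effect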
# Summary of the method: (§1)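 Viability measured as metabolically active cells via CellTiter-Glo luminescence following 48 hours of compound exposure, 11-point dilutions in confirmatory testing. 500-1,000 cells/well plated 5 hours before dosing; controls were DMSO and 2.3 µM bortezomib.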
# [2] = qHTS of pediatric cancer cell lines to identify multiple opportunities for drug repurposing: Primary screen for SJ-GBM2 cells (AID 1347091);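 for activity change, negative = cytotoxic: plate controls were DMSO neutral control for no effect and bortezomib for full effect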
# Summary of the method: as §1
# [3] = qHTS of pediatric cancer cell lines to identify multiple opportunities for drug repurposing: Primary screen for A673 cells (AID 1347092); settings: A673 Ewing sarcoma viability, CellTiter-Glo ATP luminescence, 48 h; activity change, negative = cytotoxic: at 46 µM (top of the series) unless noted; note: nearly all actives have a fitted effect of over 45% in size; for activity change, negative = cytotoxic: % is set by controls: 0 for no effect and ±100 for the full control effect
# Summary of the method: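 Titration-based qHTS on A673 cells: MIPE compounds spanned 11 points (0.78 nM to 46 µM final), NPC compounds 8 points (0.59 nM to 46 µM final). Viability after 48 h was measured by ATP luminescence.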
# Potency is the fitted concentration of half-maximal effect; tags give direction and shape of the fitted curve.
structure (smiles),measurement,setting,value
O=C(N[C@@H](COc1ccc2[nH]c(=O)[nH]c2c1)c1ccccc1)c1cccn(Cc2ccc(F)c(F)c2)c1=O,Potency,[1],"inconclusive: 18.7 µM [cytotoxic, partial curve]"
same,Potency,[2],active: 20.9 µM
same,Potency,[3],"inconclusive: 37.2 µM [cytotoxic, single point]"
C=C1CC[C@@]2(O)[C@H]3Cc4ccc(O)c5c4[C@@]2(CCN3CC2CC2)[C@H]1O5,Potency,[1],inactive
same,Potency,[2],inactive
O=c1c(C2CC(c3ccc(-c4ccc(Br)cc4)cc3)Cc3ccccc32)c(O)sc2ccccc12 (stereo unspecified),Potency,[1],"inconclusive: 33.5 µM [cytotoxic, single point]"
same,Potency,[2],active: 11.9 µM
CCC1(c2ccccc2)CCC(=O)NC1=O (stereo unspecified),Potency,[1],inactive
same,Potency,[2],inactive
CC(=O)OCC1=C(C(=O)O)N2C(=O)[C@@H](N)[C@H]2SC1,Potency,[1],inactive
same,Potency,[2],inactive
COc1cc(CC(C)N)cc(OC)c1OC (stereo unspecified),Potency,[1],inactive
same,Potency,[3],inactive
COc1cc2cc(c1Cl)N(C)C(=O)C[C@H](OC(=O)C(C)C)[C@]1(C)O[C@H]1[C@H](C)[C@@H]1C[C@@](O)(NC(=O)O1)[C@H](OC)C=CC=C(C)C2,"activity change, negative = cytotoxic",[1],inconclusive: -61.9%
same,Potency,[3],active: 0.001 µM
Cc1ccc(N=CN(C)C=Nc2ccc(C)cc2C)c(C)c1,Potency,[1],inactive
CC(O)=C(C#N)C(=O)Nc1cc(Br)ccc1Br,Potency,[2],"inconclusive: 16.6 µM [cytotoxic, partial curve]"
O=C1OC(CCN2CCCCC2)OC1(c1ccccc1)c1ccccc1 (stereo unspecified),Potency,[1],"inconclusive: 26.6 µM [cytotoxic, single point]"
same,Potency,[2],inactive
same,Potency,[3],"inconclusive: 21.1 µM [cytotoxic, single point]"
COC(=O)[C@@H](N)CCCN=C(N)N[N+](=O)[O-],Potency,[1],"inconclusive: 29.6 µM [cytotoxic, single point]"
same,Potency,[3],"inconclusive: 37.2 µM [cytotoxic, single point]"
CN1[C@@H]2CC[C@H]1CC(OC(=O)c1cc(Cl)cc(Cl)c1)C2 (stereo partly specified),"activity change, negative = cytotoxic",[1],inconclusive: -97.7%
same,"activity change, negative = cytotoxic",[3],inconclusive: -70.8%
C[C@]12C=CC(=O)C=C1CC[C@@H]1[C@@H]2CC[C@@]2(C)[C@H]1CC[C@]2(C)O,Potency,[2],"inconclusive: 16.8 µM [cytotoxic, single point]"
CCOP(=S)(OCC)O/N=C(\C#N)c1ccccc1,Potency,[1],inactive
same,Potency,[2],inactive
O=[N+]([O-])c1c2ccccc2cc2ccccc12,Potency,[1],"inconclusive: 60.5 µM [cytotoxic, single point]"
O=[N+]([O-])c1ncc[nH]1,Potency,[1],"inconclusive: 9.35 µM [cytotoxic, partial curve, poor fit]"
same,Potency,[3],inactive
COP(=S)(OC)SCN1C(=O)c2ccccc2C1=O,Potency,[1],"inconclusive: 33.5 µM [cytotoxic, single point]"
same,Potency,[3],"inconclusive: 26.6 µM [cytotoxic, single point]"
Cn1cc(C2=C(c3cn(C4CCN(Cc5ccccn5)CC4)c4ccccc34)C(=O)NC2=O)c2ccccc21,Potency,[1],"inconclusive: 5.9 µM [cytotoxic, partial curve]"
same,Potency,[3],"active: 3.72 µM and inconclusive: 2.66 µM [cytotoxic, full curve, poor fit]"
O=C(NC(=O)c1c(F)cccc1F)Nc1cc(Cl)c(OC(F)(F)C(F)C(F)(F)F)cc1Cl (stereo unspecified),Potency,[1],inactive
same,Potency,[2],"inconclusive: 13.3 µM [cytotoxic, partial curve]"
